# Laboratory results taken from the supplement of paper PMC8728848.
# The list shows a part of the results.
# B1: a L Fucosidase (Streptosporangium roseum), D2B1P1_STRRD (protein)
# chain: MRRKLLLVPAVGLLVIGSIFATQPVASADTPPVYEPTVESLNSHPVPQWFNDDKFGIFIHWGAYSVPAWGPRGSYAEWYGNYMNAGGSATNAHHKATYGQDFNYDAFLQQWKAEKFDPADWVKLFKDAGAKYFVLTSKHHEGMALWDSKSSGRDSVDLGPGRDLAKELFDAARKDEAKLKAGFYYSLYEWYNPAYTGRPATNPYTGAEIPYTGAPGGGDYVKDYMLPQMRELIDGYDPDIIWCDGQWEKPASYWNTAGVIADYYNKALNSGKEVAVANRCKIQSGNLDSPELDFQTPEYTVKPDIDPVKWESSRGIAHSYGYNQNEPEEDHLTSDQLVDSLVDIVSKNGNLLLDIGPKADGTIPEIQRQRLLDIGAWLKANGEAIYGTTYWNRAEEKGGPDDVRYTAKDATLYATALKWPGEQLTLGADLPVDHSTRITMLGSGARLSWSRDEQGRVVVNTPQEAGKHAYVFKIETPGVRSLLRTSSSLAKEIAPGRTISGELTVTNPGKRHTPATKLSLTVPQGWTATLGAPRVRPLGPGESVKVPISVSAPEGVAPAPYTLGLYQRTGRMGTTTALPLTVNRPNLSLGKPATQKSTGYDAPASRAVDGNTGGDWSAGSTTHTAEPEKQAWWQVDLGASARLDSVDVWNRLDCCADRLKDFWVMASDQPFTTDDLDQARTAPGVTAVHVGEQAGSPSKVKLPEGTRGRYVRIQLASPSNPLSLAEVQVRGSMARPNLSLGKPATQKSTGYDAPASRAVDGNTGGDWSAGSTTHTAEPEKQAWWQVDLGASARLDSVDVWNRLDCCADRLKDFWVMASDQPFTTDDLDQARTAPGVTAVHVGEQAGSPSKVKLPEGTRGRYVRIQLASPSNPLSLAEVQVRLEHHHHHHS
# How the values were obtained:
# Test in all cases: glycan array binding signal (z-score within array); higher = stronger binding
# Conditions in all cases: glycan notation: IUPAC condensed, linker removed
# [1] = target: Neu5Ac(a2-3)Gal(b1-4)GlcNAc(b1-3)[Neu5Ac(a2-3)Gal(b1-4)GlcNAc(b1-6)]GalNAc
# Outline: (§1)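 Arrays were curated from the Consortium for Functional Glycomics database, 3228 in total, and kept only where the protein sequence was available. Binding is expressed as a within-array Z-score. This score was averaged across arrays of the same protein sequence at different concentrations or buffers and across linkers, and negative values can be read as non-binding.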
# [2] = target: Neu5Ac(a2-3)Gal(b1-4)GlcNAc(b1-6)GalNAc
# Outline: as §1
# [3] = target: Neu5Ac(a2-3)Gal(b1-4)GlcNAc(b1-6)[Gal(b1-3)]GalNAc
# Outline: as §1
# [4] = target: Neu5Ac(a2-3)Gal(b1-4)GlcNAc(b1-6)[Neu5Ac(a2-3)Gal(b1-3)]GalNAc
# Outline: as §1
# [5] = target: Neu5Ac(a2-3)Gal(b1-4)GlcNAc6S
# Outline: as §1
# [6] = target: Neu5Ac(a2-3)Gal(b1-4)[Fuc(a1-3)]GlcNAc
# Outline: as §1
# [7] = target: Neu5Ac(a2-3)Gal(b1-4)[Fuc(a1-3)]GlcNAc(b1-2)Man
# Outline: as §1
# [8] = target: Neu5Ac(a2-3)Gal(b1-4)[Fuc(a1-3)]GlcNAc(b1-3)Gal
# Outline: as §1
# [9] = target: Neu5Ac(a2-3)Gal(b1-4)[Fuc(a1-3)]GlcNAc(b1-3)Gal(b1-4)GlcNAc
# Outline: as §1
# [10] = target: Neu5Ac(a2-3)Gal(b1-4)[Fuc(a1-3)]GlcNAc(b1-3)Gal(b1-4)[Fuc(a1-3)]GlcNAc(b1-3)Gal(b1-4)[Fuc(a1-3)]GlcNAc
# Outline: as §1
# [11] = target: Neu5Ac(a2-3)Gal(b1-4)[Fuc(a1-3)]GlcNAc(b1-3)GalNAc
# Outline: as §1
# [12] = target: Neu5Ac(a2-3)Gal(b1-4)[Fuc(a1-3)]GlcNAc(b1-6)[Gal(b1-3)]GalNAc
# Outline: as §1
# [13] = target: Neu5Ac(a2-3)Gal(b1-4)[Fuc(a1-3)]GlcNAc(b1-6)[Neu5Ac(a2-3)Gal(b1-3)]GalNAc
# Outline: as §1
# [14] = target: Neu5Ac(a2-3)Gal(b1-4)[Fuc(a1-3)]GlcNAc6S
# Outline: as §1
# [15] = target: Neu5Ac(a2-3)Gal6S(b1-4)GlcNAc
# Outline: as §1
# [16] = target: Neu5Ac(a2-3)Gal6S(b1-4)[Fuc(a1-3)]GlcNAc
# Outline: as §1
# [17] = target: Neu5Ac(a2-3)GalNAc
# Outline: as §1
# [18] = target: Neu5Ac(a2-3)GalNAc(b1-4)GlcNAc
# Outline: as §1
# [19] = target: Neu5Ac(a2-3)[GalNAc(b1-4)]Gal(b1-4)Glc
# Outline: as §1
# [20] = target: Neu5Ac(a2-3)[GalNAc(b1-4)]Gal(b1-4)GlcNAc
# Outline: as §1
# [21] = target: Neu5Ac(a2-3)[GalNAc(b1-4)]Gal(b1-4)GlcNAc(b1-3)GalNAc
# Outline: as §1
# [22] = target: Neu5Ac(a2-3)[Neu5Ac(a2-6)]GalNAc
# Outline: as §1
# [23] = target: Neu5Ac(a2-6)Gal
# Outline: as §1
# [24] = target: Neu5Ac(a2-6)Gal(b1-3)GlcNAc(b1-3)[Gal(b1-4)GlcNAc(b1-6)]Gal(b1-4)Glc
# Outline: as §1
# [25] = target: Neu5Ac(a2-6)Gal(b1-4)Glc
# Outline: as §1
# [26] = target: Neu5Ac(a2-6)Gal(b1-4)GlcNAc
# Outline: as §1
# [27] = target: Neu5Ac(a2-6)Gal(b1-4)GlcNAc(b1-2)Man
# Outline: as §1
# [28] = target: Neu5Ac(a2-6)Gal(b1-4)GlcNAc(b1-2)Man(a1-3)Man(b1-4)GlcNAc(b1-4)GlcNAc
# Outline: as §1
# [29] = target: Neu5Ac(a2-6)Gal(b1-4)GlcNAc(b1-2)Man(a1-3)[Gal(b1-4)GlcNAc(b1-2)Man(a1-6)]Man(b1-4)GlcNAc(b1-4)GlcNAc
# Outline: as §1
# [30] = target: Neu5Ac(a2-6)Gal(b1-4)GlcNAc(b1-2)Man(a1-3)[GlcNAc(b1-4)][Neu5Ac(a2-6)Gal(b1-4)GlcNAc(b1-2)Man(a1-6)]Man(b1-4)GlcNAc(b1-4)GlcNAc
# Outline: as §1
binder,measurement,setting,value
B1,glycan array binding signal (z-score),[1],-0.545
same,glycan array binding signal (z-score),[2],-0.204
same,glycan array binding signal (z-score),[3],0.139
same,glycan array binding signal (z-score),[4],-0.417
same,glycan array binding signal (z-score),[5],-0.48
same,glycan array binding signal (z-score),[6],-0.53
same,glycan array binding signal (z-score),[7],-0.149
same,glycan array binding signal (z-score),[8],-0.428
same,glycan array binding signal (z-score),[9],-0.252
same,glycan array binding signal (z-score),[10],-0.37
same,glycan array binding signal (z-score),[11],0.067
same,glycan array binding signal (z-score),[12],-0.531
same,glycan array binding signal (z-score),[13],-0.42
same,glycan array binding signal (z-score),[14],-0.247
same,glycan array binding signal (z-score),[15],-0.478
same,glycan array binding signal (z-score),[16],-0.575
same,glycan array binding signal (z-score),[17],0.096
same,glycan array binding signal (z-score),[18],0.076
same,glycan array binding signal (z-score),[19],-0.455
same,glycan array binding signal (z-score),[20],-0.513
same,glycan array binding signal (z-score),[21],-0.361
same,glycan array binding signal (z-score),[22],0.375
same,glycan array binding signal (z-score),[23],-0.528
same,glycan array binding signal (z-score),[24],-0.585
same,glycan array binding signal (z-score),[25],-0.462
same,glycan array binding signal (z-score),[26],-0.397
same,glycan array binding signal (z-score),[27],-0.199
same,glycan array binding signal (z-score),[28],-0.533
same,glycan array binding signal (z-score),[29],-0.324
same,glycan array binding signal (z-score),[30],0.008
